From the RNAGym collection of RNA variant scans (doi:10.7554/elife.90254)
Read counts are not given, so values of variants with three or more changes are uncertain.

B1: LINE1-full (parent)
chain: UACGUAGGUGGUUUUCCCCUGAUAGUGCUAAGGGGGCCUGGAAGUUUGGACUGGGCAGAGCUCAACACAGCGUGGCAAAGUGGCUGUGGCUAGACUGCCUCUCUGGAUUCCUCGUCACUCAGCAGGGCAUCUCUGAGAGAAAUGCC

Variants of: B1
Assay: self-cleavage, relative activity (ratio to wild type); higher = more cleavage; in vitro, sequencing; the parent is a self-cleaving ribozyme

Row | Variant | self-cleavage
1 | U13C U23C U87C C101A | 0
2 | U1C U13C C84U A124U | 0.12
3 | U12G U52C A69C | 0.68
4 | U91C G127A U134C | 0.86
5 | A2G U26C G137U | 1.74
6 | A42U U52A U73A U100C | 2.42
7 | G8A C76U A79G A121G | 2.16
8 | U14C G35A A64U C76U U119C | 0.69
9 | U14C U96C A121U | 0.24
10 | A30U A77U G93U | 0.04
11 | U13C C71U A79G G125A | 0.53
12 | A2U U39A A42G | 0.39
13 | U39C U91A A141G | 0
14 | U13C A92G U96A A117G G127A | 0.32
15 | U15C U52A A94G G97A A141G | 0.13
16 | G89A A117U A136G | 0.01
17 | G75U C120U G126A | 0.87
18 | U14C G25C U85C C113U U130C | 0.08
19 | U13C U45C G49U | 0.84
20 | U26A G36C U45C U62A A138G A140U | 0.07
21 | U39C U91C A141G | 0.1
22 | A31G A50G A77U U87C | 0
23 | U1C A22G A64G | 0.22
24 | A57G C71A A78U A140G | 0.03

Row | Variant | self-cleavage
25 | U9C U73C A77G A94U U102C A121U | 1.02
26 | U9C A69G U109C A124G | 0
27 | U1C A43G A65G A117G | 0
28 | U62A A79G U87A | 0.01
29 | A65U A67U U143C | 0.07
30 | U29C A43U A78G | 1.78
31 | A65G A69G C111A A124G | 0
32 | U1C G32A A94U U102C | 0.09
33 | U14C U26A U45C G126A A136G U143C | 0.67
34 | G35A A67G U115C | 0
35 | A64G C76U U130C | 0.28
36 | A65G U85A U100C | 0
37 | U20A A30G C61U A79C A141G | 0.06
38 | U26A U52G U104A U108C | 1.47
39 | C63U A65G A78G | 0.06
40 | U20A U108C A136G A142G | 1.53
41 | A124G C128G A140G | 0.19
42 | U46C U85C U134G | 0.26
43 | G105A U119G A121G | 2.89
44 | A42G A78G A142G | 1.19
45 | U13C A22G U62A G74A | 0.08
46 | U47C U112A U132C | 1.93
47 | G32A U119C U132C | 1.87
48 | A30G U81C G144A | 0.51

Row | Variant | self-cleavage
49 | A79G G86C U143A | 0.16
50 | C3G U20C U85C | 0.24
51 | U23C A65G C120U U132C | 0.08
52 | G33U G34A U102A A129G | 1.35
53 | C17U A57U A129U U130C | 0.13
54 | U26C A42G U91A A138G | 0
55 | U20C A31G U52C G93C | 0.18
56 | U73A U102C U112C | 1.65
57 | U87C A140U U143C | 0.26
58 | U52C U100C A124G A141G | 2.7
59 | A24G A77U U85A | 0
60 | U5C U15C U46A | 0.35
61 | U9A A79C U87C U134A | 0.48
62 | A6U A57G A77G | 0.59
63 | U47C A64G A140G | 0.58
64 | U12C U46A U62C G135A | 0.18
65 | U13C A50U A92G U132C G135U | 0
66 | A6G A22G U62G | 0
67 | U39C A69U U87A C95U A124G | 0.04
68 | U9A A24G U39A C61U | 0
69 | U47G G54A U130C | 0.49
70 | U23C G106A A121U | 1.52
71 | G32A A117G G126A | 1.47
72 | U12C A77G U112C U134C | 1.31

Row | Variant | self-cleavage
73 | U87C U91C C123U | 0.13
74 | U39A A42G A136G | 0.9
75 | U1C U13C C37U U39C A64G | 0.16
76 | U13A A92U G93A A94G | 0.02
77 | U20G A43G U45C U52C U132C U134A A140G | 0
78 | A31G U102A G114A A142G | 1.27
79 | A22U A30G U87A U100C | 0.3
80 | U26C A64G U73A U112C A138G | 0.42
81 | U15C A69G G106A A124G | 0.07
82 | G4A U45A U143G | 1.43
83 | U23C G40A U52A A107G A142G | 2.08
84 | U47C U85A U132A | 0.14
85 | G41A U46C U119C | 1.51
86 | U5C U12G A59G G75A G122U G125A A129G | 0.16
87 | A2G U13C A65G | 0
88 | U26C A43U U112C A124U | 1.05
89 | U13C U15C A138G | 1.1
90 | G10A A31U C128G | 0.66
91 | U20C A30U A117U | 0.91
92 | U9A U39A A59G | 0.14
93 | A22G A24G C95A C123A | 0.05
94 | A2G U104C U109A | 1.02
95 | U5G A121G U130C | 0.42
96 | A43G G60A A67G G70C A78G | 0.11

Row | Variant | self-cleavage
97 | U20A A94G G114A G122U | 0.2
98 | U5C A42G U62C A79G U130A | 0.53
99 | G7A A64G G83A | 0.23
100 | A64G G74A A142G | 0.19
101 | A2G U15C G41A A79G | 1.01
102 | C51A A59U A117U | 0.48
103 | U9G G10U A77C | 0.77
104 | U14A C90U A138G | 0.03
105 | U15A G48U A64U U134C A136G U143A | 0.07
106 | C18U U47C G83A U119A | 1.17
107 | U14C U15A A136U | 1.36
108 | A2G A59G U85C G125A | 0
109 | G4A C68U A69U | 0.03
110 | U47C A107C C120U | 2.1
111 | G21A A59G U102C U104G | 0
112 | U14C U96A U104A U115C | 0
113 | C3U U12C A24G A141G | 0.49
114 | U26A A94U C131U | 0.27
115 | U13C A69G U91C | 0
116 | G11A G72A U102C A129G | 1.33
117 | A6C U12A G25A U96A A117U | 0
118 | A6G U45A U62C A65G U115A U143C | 0.14
119 | U12C A64G A77U A121G | 0.63
120 | U13C A77G U109C | 0.54

Row | Variant | self-cleavage
121 | A67U A107G A140G | 0.1
122 | U52A A107G U130C | 1.22
123 | U12C A77G U143C | 1.19
124 | G93A U115C A141G | 0.15
125 | A59G A117G U143C | 0
126 | A24U C63U A78U A141G | 0.41
127 | U73A C110A U130G | 0.72
128 | A50G A79G G86A U96C U115C | 0.2
129 | G32U C37G A57G U87C | 0.1
130 | U1A C3U C19U A77G A140G | 2.09
131 | A42G G48A A50G | 0.88
132 | U62A A117G U143C | 0
133 | U39A A69G G93A U96C | 0.1
134 | U23C U73A U100C | 1.41
135 | U15A U47A G126A A142G | 1.07
136 | G4C U13C A59G | 0.15
137 | U39C U104C U109A | 2.64
138 | G7A A43U U46C | 0.69
139 | A69G A124U A141G | 0.2
140 | C37U A50C A67G U73A U143C | 0.12
141 | G35U A42G U134C | 2.01
142 | A64U A117G U132G | 0.71
143 | U29C A64U U73C A141G | 0.29
144 | C19U U47C A50G U108C | 1.53

Row | Variant | self-cleavage
145 | A30G A79G U102C | 0.57
146 | U62C A121C A142G | 0.09
147 | U52A U62C U102A U132C | 0
148 | U5A A77U C146U | 1.06
149 | A59G U100C A107G | 0.38
150 | U12C U47C A67G | 0.95
151 | A2G A30U U62C U100C A117G G139U | 0
152 | U23C A64G U85C | 0.22
153 | U5C G54U U102C | 0
154 | U45A C63A U81A | 0.05
155 | U29A A65G U102C | 0
156 | C84U C95A U132A | 0.03
157 | A6G C17A U96A G139A | 0.11
158 | U73C A77G A138G | 0.92
159 | U20G U62C C101A C146U | 0.18
160 | A2G U5C U47C A57U U73A U91C C131U | 0
161 | A79G U81A A136G A138U | 1.96
162 | U9C U39A U47C U62C A140G A141G | 0
163 | U20C G36U A59G U108C | 0.02
164 | U13A U52C U62A U91C | 0
165 | G53C U81A A136G | 2.44
166 | U14G A22G G122U U132G | 0.92
167 | G35U A64G A92G | 0.16
